Laboratory results taken from PMC5290273 (Nature Communications, 2017).
These are yes or no findings as the source states them, for the method shown. In cells and extracts the contact can be indirect. Some entries that bind do so weakly or less than the wild type.

Amino acid sequences for entries named in this document (tags omitted).
UniProt O00472: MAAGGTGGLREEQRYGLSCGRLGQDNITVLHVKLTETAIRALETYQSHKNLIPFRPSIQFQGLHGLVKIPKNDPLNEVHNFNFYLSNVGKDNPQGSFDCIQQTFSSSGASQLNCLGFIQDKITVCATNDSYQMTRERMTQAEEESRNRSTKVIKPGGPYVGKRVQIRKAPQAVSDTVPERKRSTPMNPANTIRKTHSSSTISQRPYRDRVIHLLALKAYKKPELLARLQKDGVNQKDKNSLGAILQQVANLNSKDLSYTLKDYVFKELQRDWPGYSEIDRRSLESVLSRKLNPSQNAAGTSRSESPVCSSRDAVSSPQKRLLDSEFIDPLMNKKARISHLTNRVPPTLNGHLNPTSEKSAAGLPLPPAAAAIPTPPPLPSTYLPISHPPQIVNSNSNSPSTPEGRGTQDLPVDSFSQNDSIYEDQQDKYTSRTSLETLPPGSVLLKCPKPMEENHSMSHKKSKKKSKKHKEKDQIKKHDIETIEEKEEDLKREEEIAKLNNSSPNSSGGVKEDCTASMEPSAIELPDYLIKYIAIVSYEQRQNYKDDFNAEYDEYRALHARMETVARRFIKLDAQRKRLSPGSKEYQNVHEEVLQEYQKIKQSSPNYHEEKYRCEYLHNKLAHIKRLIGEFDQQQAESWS

Target: HA-tagged wild-type ELL2 (human) (UniProt O00472)
Assay: co-IP

B1: AFF1, endogenous (protein, UniProt P51825 1-1210)
chain: MAAQSSLYNDDRNLLRIREKERRNQEAHQEKEAFPEKIPLFGEPYKTAKGDELSSRIQNMLGNYEEVKEFLSTKSHTHRLDASENRLGKPKYPLIPDKGSSIPSSSFHTSVHHQSIHTPASGPLSVGNISHNPKMAQPRTEPMPSLHAKSCGPPDSQHLTQDRLGQEGFGSSHHKKGDRRADGDHCASVTDSAPERELSPLISLPSPVPPLSPIHSNQQTLPRTQGSSKVHGSSNNSKGYCPAKSPKDLAVKVHDKETPQDSLVAPAQPPSQTFPPPSLPSKSVAMQQKPTAYVRPMDGQDQAPSESPELKPLPEDYRQQTFEKTDLKVPAKAKLTKLKMPSQSVEQTYSNEVHCVEEILKEMTHSWPPPLTAIHTPSTAEPSKFPFPTKDSQHVSSVTQNQKQYDTSSKTHSNSQQGTSSMLEDDLQLSDSEDSDSEQTPEKPPSSSAPPSAPQSLPEPVASAHSSSAESESTSDSDSSSDSESESSSSDSEENEPLETPAPEPEPPTTNKWQLDNWLTKVSQPAAPPEGPRSTEPPRRHPESKGSSDSATSQEHSESKDPPPKSSSKAPRAPPEAPHPGKRSCQKSPAQQEPPQRQTVGTKQPKKPVKASARAGSRTSLQGEREPGLLPYGSRDQTSKDKPKVKTKGRPRAAASNEPKPAVPPSSEKKKHKSSLPAPSKALSGPEPAKDNVEDRTPEHFALVPLTESQGPPHSGSGSRTSGCRQAVVVQEDSRKDRLPLPLRDTKLLSPLRDTPPPQSLMVKITLDLLSRIPQPPGKGSRQRKAEDKQPPAGKKHSSEKRSSDSSSKLAKKRKGEAERDCDNKKIRLEKEIKSQSSSSSSSHKESSKTKPSRPSSQSSKKEMLPPPPVSSSSQKPAKPALKRSRREADTCGQDPPKSASSTKSNHKDSSIPKQRRVEGKGSRSSSEHKGSSGDTANPFPVPSLPNGNSKPGKPQVKFDKQQADLHMREAKKMKQKAELMTDRVGKAFKYLEAVLSFIECGIATESESQSSKSAYSVYSETVDLIKFIMSLKSFSDATAPTQEKIFAVLCMRCQSILNMAMFRCKKDIAIKYSRTLNKHFESSSKVAQAPSPCIASTGTPSPLSPMPSPASSVGSQSSAGSVGSSGVAATISTPVTIQNMTSSYVTITSHVLTAFDLWEQAEALTRKNKEFFARLSTNVCTLALNSSLVDLVHYTRQGFQQLQELTKTP
Question: With B1 as the binder, how does the binding read?
Answer: binds
